ChEMBL document CHEMBL1157539, “Thousands of chemical starting points for antimalarial lead identification” (Nature, 2010)
Whole data set: some 13,000 compounds, median “IFI” near 4, cut for the highest 2% near 17. This is one part of the list.

assay: GSK_TCMDC: Inhibition Frequency Index (IFI). The number of non-kinase HTS assays where a compound showed > 50 % inhibition, expressed as a percentage of the number of such assays in which the compound was tested (-0 is zero); type: functional

| SMILES | IFI [%] |
| --- | --- |
| COc1ccc2nccc([C@@H](O)CN3CCC(NCc4cc5sccc5nc4C(F)(F)F)CC3)c2c1 | 2.17 |
| Cc1cccc(C)c1C1CCN(C2CCC(NC(=O)/C=C/c3ccccc3)CC2)CC1 (configuration not stated) | 6.06 |
| COc1ccccc1CCNc1nc(C)cc(N[C@@H](CC(C)C)C(=O)Nc2ccccc2)n1 | 15.8 |
| CCN(CCCN1CCCCC1)c1cc(C)nc(Nc2ccc(C)cc2C(F)(F)F)n1 | 5.06 |
| CN(C)Cc1cc(Nc2ccnc3cc(Cl)ccc23)ccc1O | 1.4 |
| CN1CCN(CC(=O)Nc2ccc(-c3cccc(-c4nc5cc(F)ccc5[nH]4)c3)cc2)CC1 | 3.6 |
| COc1ccc(C(=O)CCC(=O)N(Cc2ccc(-c3ccc(CNCCc4ccccc4)cn3)cc2)C(C)CN(C)C)cc1F (configuration not stated) | 6.9 |
| Cc1cc(Nc2ccc(O)cc2)nc2cc(O)ccc12 | 3.85 |
| CN1CCN(CCc2ccc(N/C=C3\C(=O)Nc4ccc5ncccc5c43)cc2)CC1 | 7.86 |
| Cc1cccc2nc(-c3ccc(-c4cccc(NC(=O)c5ccncc5)c4)cc3)[nH]c12 | 5.61 |
| CC(Cc1ccc(NC(=O)c2ccc(CC(C)NCc3ccc(Cl)c(Cl)c3)cc2)cc1)NCCc1cccc(Cl)c1 (configuration not stated) | 3.57 |
| Cc1c(F)cc(C(=O)NC2CC2)cc1-c1ccc2c(cnn2S(=O)(=O)c2ccc(F)c(F)c2)c1 | 5.19 |
| COc1cc(-n2cnc3cc(-c4ccc(Cl)cc4)sc3c2=O)ccc1OCCN1CCC(c2cccc(NC(C)=O)c2)CC1 | 10.1 |
| Clc1cccc(C=NNc2ccnc3cc(Cl)ccc23)c1 | 2.22 |
| CCc1cn2c3c(cc(C(=O)N[C@@H](Cc4cccc(Cl)c4)[C@H](O)CNC4CC4)cc13)N(C)S(=O)(=O)CC2 | 3.68 |
| CN1CCN(c2ccnc3ccc(NC(=O)Nc4ccc(Cl)cc4)cc23)CC1 | 0.73 |
| c1cncc(CCNCc2cccc(-c3ccc(-c4nc5ccccc5[nH]4)s3)c2)c1 | 3.53 |
| O=C(NC1CC1)c1ccc(Nc2nccc(-c3c(-c4cccc(NC(=O)c5c(F)cccc5F)c4)nn4ccccc34)n2)cc1 | 6.43 |
| CCCCCCCCc1nc(C)c(Br)c(O)c1Br | 5.76 |

| SMILES | IFI [%] |
| --- | --- |
| O=C(NCCNc1ccnc(Nc2ccc(F)cc2)n1)c1cc2ccccc2s1 | 4.62 |
| CN1CCC(Oc2cc(NC(=O)Nc3ccc(-c4ccncc4)c(C(F)(F)F)c3)ccc2Cl)CC1 | 8.03 |
| Cc1cc(CN2CC[C@H](NC(=O)c3ccc(Cl)c(Cl)c3)C2)ccc1OCCN1CCNCC1 | 5.88 |
| CCN(CCCN1CCCCC1)c1cc(C)nc(Nc2ccc(C)c(F)c2)n1 | 3.85 |
| CC(C)Cc1nc(N)nc(N)c1-c1ccc(Cl)cc1 | 0.76 |
| Cc1nc2nc(N)nc(N)c2c(C)c1Cc1ccc(Cl)cc1 | 2.22 |
| COc1ccc2nccc([C@@H](O)CN3CCC(NCc4nc5c(cc4Cl)SCC(=O)N5)C(F)C3)c2c1 (some centres not stated) | 2.38 |
| Cc1cc(N)c2cc(NC(=O)c3cccc(C(=O)Nc4ccc5nc(C)cc(N)c5c4)c3)ccc2n1 | 8.84 |
| COc1cc(Cc2cnc(N)nc2N)cc(OCCCCCCN)c1OC | 0 |
| O=C(Nc1cccc(-c2ccc(CN3CCC(O)CC3)cc2)c1)c1ccc(Cl)cc1 | 3.85 |
| CCN(CC)c1nc(N)c2c(N)nc3c(c2c1C#N)C(=O)CN3Cc1ccccc1 | 11.8 |
| COc1ccc(-c2ccnc(-c3cccc(-c4ccccn4)n3)c2)cc1 | 13.3 |
| CCCCc1cc(N2CCC(NC(C)=O)C2)nc(Nc2ccc(C)cc2)n1 (configuration not stated) | 1.45 |
| Cc1[nH]c(C)c(-c2ccc(-c3ccccc3Cl)nc2)c(=O)c1Br | 0 |
| N#Cc1ccc(N2CCN(Cc3cccc(-c4ccc(-c5nc6cc(C(F)(F)F)ccc6[nH]5)s4)c3)CC2)nc1 | 9.8 |
| CCN1CCN(c2ccc(NC(=O)c3cc4c(C)nn(-c5ccccc5)c4s3)cc2C)CC1 | 11.3 |
| CN1CCCN(Cc2ccc(-c3ccc(NC(=O)c4cccc(C#N)c4)cc3)cc2)CC1 | 7.22 |
| CC(C)NCc1ccc(-c2ccc(NC(=O)c3ccc(Cl)cc3)cc2)cc1 | 7.14 |
| COc1ccc2nccc([C@@H](O)CN3CCC(NC(=O)C(c4ccsc4)N4CCN(c5ccccc5)CC4)CC3)c2c1 (some centres not stated) | 0.69 |

| SMILES | IFI [%] |
| --- | --- |
| COc1cccc(OC)c1-c1ccccc1NC(=O)N1CCCc2cc(C)ccc21 | 3.7 |
| CC(=O)Nc1ccc(C(=O)Nc2cccc(-c3cccc(-c4nc5cccc(C)c5[nH]4)c3)c2)cn1 | 1.87 |
| COc1ccc(NC(=O)/C=C/c2ccccc2Cl)cc1OCCN1CCC(N2CCCCC2)CC1 | 3.1 |
| CC(C)Oc1ccc(C=CC(=O)Nc2noc3ccccc23)cc1 | 1.54 |
| CC(=O)N1Cc2ccccc2C1=O | 0.75 |
| Cc1cc2c(cc1C(F)(F)F)N(C(=O)Nc1cc(C(=O)NCCN(C)C)cc(C(F)(F)F)c1)CC2 | 3.57 |
| FC(F)(F)c1ccc2[nH]c(-c3ccc(-c4ccc(CNCc5cnn(-c6ccccc6)n5)cc4)s3)nc2c1 | 11.3 |
| O=C(NC1CCC(N2CCC(c3ccccc3C(F)(F)F)CC2)CC1)c1cc2ccccc2[nH]1 (configuration not stated) | 10.4 |
| Cc1ccc(NC(=O)Nc2ccc(Br)cc2)cc1OCCN(C)C | 2.1 |
| O=C(Nc1ccccc1Cc1ccccc1)c1ccccc1C(F)(F)F | 0.78 |
| O=C(NCCc1ccccc1)[C@H](Cc1ccccc1)Nc1ccnc(NCC2CCCCC2)n1 | 20.4 |
| Cc1c(Cl)cccc1S(=O)(=O)N1CCCCC(c2ccc(C(F)(F)F)cc2)=N1 | 2.19 |
| Cc1n[nH]c2ccc(-c3cc(OC[C@@H](N)Cc4ccccc4)cnc3-c3ccc(OCc4cccc(F)c4)cc3)cc12 | 12.5 |
| Cc1cc(C(=O)OCC(=O)Nc2c(C)n(C)n(-c3ccccc3)c2=O)c(C)n1-c1ccc(F)cc1 | 0 |
| O=C(Nc1ccc(C(F)(F)F)cc1)NC1CCN(c2ccnc3ccccc23)C1 (configuration not stated) | 6.06 |
| c1ccc(CN2CCC(NCc3ccc(-c4ccc(CNCc5cccnc5)cn4)cc3)CC2)cc1 | 0.68 |
| C[C@H](Cc1ccc(OCCCCCOc2ccc(C[C@@H](C)NC[C@H](O)c3cccc(Cl)c3)cc2)cc1)NC[C@H](O)c1cccc(Cl)c1 | 20.9 |
| COc1cccc2cc(C(=O)N[C@@H](CC(C)C)C(=O)N[C@H](/C=N/N3C(=O)CN(Cc4ccccc4)C3=O)CCc3ccccc3)oc12 | 5.5 |
| CN(C)CCNCc1ccc(-c2ccc3c(Nc4ccc(Cl)cc4F)ccnc3c2)o1 | 7.04 |
